# The shares of active, inactive and inconclusive entries below differ from those in the screen. For some assays here: No potency is given beside an inconclusive call; the fits are too rough. The source made the active and inactive calls. Unless noted, the call rests on the fitted dose curve; in most records, active means well fitted curve in the direction sought with a large enough effect; inconclusive means small, poorly fitted or top-dose-only effect, or another doubt; inactive means no such curve, though single readings can be large; an effect the other way counts as inactive or inconclusive.
# Assays:
# [1] = system: Zika virus NS2B-NS3 protease (linked construct); assay: Primary screen NINDS Rhodamine qHTS for Zika virus inhibitors (AID 1347160); further: nearly all actives have a fitted effect of over 55% in size; further: potency means the concentration at half of the fitted maximal effect
# Outline: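 Single-chain NS2B-NS3 protease, 25 nM, pH 8.0; compounds preincubated 15 min. Activity: Rhodamine110 release from 1.5 microM substrate over 15 min, room temperature, data fitted to 4-parameter Hill.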
# [2] = Primary qHTS for inhibitors of nuclear receptor binding SET domain protein 2 (NSD2) in an isogenic RCH-ACV NSD2 p.E1099K mutant (9B) (AID 1645876); conditions: activity change, negative = viability loss: at 44.9 µM (top of the series) unless noted; further: nearly all actives have a fitted effect of over 70% in size
# [3] = Primary qHTS for inhibitors of nuclear receptor binding SET domain protein 2 (NSD2) in an RCH-ACV wild type WT cells (2C) (AID 1645877); conditions: activity change, negative = cell killing: at 44.9 µM (top of the series) unless noted; further: nearly all actives have a fitted effect of over 70% in size
# [4] = Primary fluorescence-based thiol-reactive (MSTI) qHTS assay for identification of artifact compounds. (AID 1845221);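 further: potency means the concentration at half of the fitted maximal effect; thiol-reactive compounds lower the probe fluorescence signal; nearly all actives have a fitted effect of over 65% in size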
# Outline: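 In PBS pH 7.4 with 2% DMSO, each compound met 4 uM MSTI for one hour at ambient temperature, shielded from light, before fluorescence detection.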
# [5] = system: Hek293T; assay: Primary qHTS to identify gynecologic anti-cancer compounds using libraries of approved drugs and bioactive compounds (AID 1345084); conditions: Gynecologic cancer cell panel viability, ATPlite luminescence, 48 h, control line for the selectivity index; series mostly up to 57.5 µM; further: nearly all actives have a fitted effect of over 55% in size; further: potency means the concentration at half of the fitted maximal effect
# Outline: (§1)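 Five-concentration response, 48 h; readout is ATP-driven luciferase luminescence.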
# [6] = system: SKOV3; assay: as above; conditions: Gynecologic cancer cell panel viability, ATPlite luminescence, 48 h; series mostly up to 57.5 µM
# Outline: as §1
# [7] = system: Tov112D; assay: as above; conditions: Gynecologic cancer cell panel viability, ATPlite luminescence, 48 h; series mostly up to 57.5 µM
# Outline: as §1
# [8] = system: Zika virus NS2B-NS3 protease (unlinked complex); assay: Primary screen GU Rhodamine qHTS for Zika virus inhibitors: Unlinked NS2B-NS3 protease assay (AID 1347159); conditions: Recombinant ZIKV NS2B-NS3 protease, Rhodamine110 substrate fluorescence; activity change, negative = inhibition: at 107 µM (top of the series); further: nearly all actives have a fitted effect of over 60% in size
# Outline: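 Unlinked NS2B/NS3, 25 nM; Rhod110 peptide, 1.5 microM; compounds, up to 114 microM. Reaction run 15 min at RT in 10 mM Tris-HCl pH 8.0, 0.01% Tween 20; kinetic fluorescence change fitted with a 4-parameter Hill model.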
# [9] = qHTS of pediatric cancer cell lines to identify multiple opportunities for drug repurposing: Primary screen for SK-N-MC cells (AID 1347093); conditions: SK-N-MC viability, CellTiter-Glo luminescence, 48 h; series mostly up to 46 µM
# Outline: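 Metabolically active cells were quantified by ATP-dependent luminescence (CellTiter-Glo, 15 min at room temperature) following 48 h treatment. Cells had been plated at 500-1,000 per well and settled for 5 h beforehand.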
# [10] = qHTS of pediatric cancer cell lines to identify multiple opportunities for drug repurposing: Primary screen for Rh41 cells (AID 1347108);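 further: luminescence drop marks cytotoxic hits; nearly all actives have a fitted effect of over 70% in size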
# Outline: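 500-1,000 cells/well; 5 h pre-incubation 37 °C/5% CO2; compound pinned; 48 h; CellTiter-Glo, 15 min RT; luminescence. MIPE 11-pt from 0.78 nM, NPC 8-pt from 0.59 nM final. Bortezomib 2.3 µM final as positive control.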
# [11] = molecular target: Calcium and integrin-binding protein 1 (Homo sapiens) (UniProt Q99828); assay: Primary qHTS for Identification of Calcium Integrin Binding Protein 1 (CIB1) Competitor (AID 1508620); further: potency means the concentration at half of the fitted maximal effect
# Outline: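 Fluorescence polarization competition: CIB1-GST (1 uM final) preincubated with compound 15 min at room temperature, then FITC-labeled alphaIIb peptide (100 nM final) added for another 15 min. Polarization read at Ex 480/Em 540.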
# [12] = A High-Content qHTS Against Drug Library for the Identification of Small Molecules that Inhibit DYT1 Early Onset Primary Dystonia-Associated Cell Pathology (AID 1645839; calls by dose curve)
# Outline: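 Induced EGFP-delE TorsinA cells are imaged after 48 h of compound treatment. Punctate fusion-protein distribution gives the %pathology value, while nuclei counts flag toxicity. Wild-type EGFP-hTOR1A cells define the normal pattern.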
# [13] = system: ATS189; assay: qHTS profiling for inhibitors of Plasmodium falciparum proliferation (AID 504749); further: nearly all actives have a fitted effect of over 60% in size; further: potency means the concentration at half of the fitted maximal effect; conditions: P. falciparum in erythrocytes, SYBR Green DNA, 72 h; series mostly up to 28.7 µM
# Outline: (§2)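 Quantitative HTS: compounds pinned into medium, infected erythrocytes added (0.3% parasitemia, 2.5% hematocrit), 72 h culture at 37 C under 5% CO2. Saponin/Triton lysis with SYBR Green I, overnight RT, then fluorescence read.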
# [14] = system: CP191; assay: as above; conditions: P. falciparum in erythrocytes, SYBR Green DNA, 72 h; series mostly up to 28.7 µM
# Outline: as §2
# [15] = system: CP215; assay: as above; conditions: P. falciparum in erythrocytes, SYBR Green DNA, 72 h; series mostly up to 28.7 µM
# Outline: as §2
# [16] = system: CP335; assay: as above; conditions: P. falciparum in erythrocytes, SYBR Green DNA, 72 h; series mostly up to 28.7 µM
# Outline: as §2
# [17] = system: DIV14; assay: as above; conditions: P. falciparum in erythrocytes, SYBR Green DNA, 72 h; series mostly up to 28.7 µM
# Outline: as §2
# [18] = system: Dd2; assay: as above; conditions: P. falciparum in erythrocytes, SYBR Green DNA, 72 h; series mostly up to 28.7 µM
# Outline: as §2
# [19] = system: P94_40; assay: as above; conditions: P. falciparum in erythrocytes, SYBR Green DNA, 72 h; series mostly up to 28.7 µM
# Outline: as §2
# [20] = system: TAB109; assay: as above; conditions: P. falciparum in erythrocytes, SYBR Green DNA, 72 h; series mostly up to 28.7 µM
# Outline: as §2
# [21] = system: W2; assay: as above; conditions: P. falciparum in erythrocytes, SYBR Green DNA, 72 h; series mostly up to 28.7 µM
# Outline: as §2
# [22] = molecular target: Nuclear receptor subfamily 1 group I member 3 (Homo sapiens) (UniProt Q14994); assay: Primary qHTS for antagonist of constitutive androstane receptor (CAR) against the NCATS DSHEA and TCM libraries (AID 1794836); further: potency means the concentration at half of the fitted maximal effect
# Outline: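 HepG2 cells stably carrying hCAR and a CYP2B6 luciferase reporter (2,500 cells/well) attached for 5 h, then received compounds with 48 uM CITCO for 24 h at 37C. ONE-Glo luminescence read antagonism; CellTiter-Fluor (405/540 nm) gave viability.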
# [23] = molecular target: Phospholipid hydroperoxide glutathione peroxidase GPX4 (Homo sapiens) (UniProt P36969); assay: Primary qHTS Assay for Inhibitors of Recombinant Selenoprotein Glutathione Peroxidase 4 (GPX4) (AID 1845192); conditions: activity change, negative = inhibition: at 50 µM (top of the series) unless noted; further: potency means the concentration at half of the fitted maximal effect; nearly all actives have a fitted effect of over 65% in size
# Outline: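 qHTS, GR-coupled: GPX4 200 nM + cpd 30 min RT → GSH 1 mM, NADPH 0.5 mM, GR 100 nM → CHP 0.5 mM start; fluor 340/450 at t0 and t15 min; no-enzyme wells as control.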
# [24] = molecular target: Cytochrome P450 3A4 (Homo sapiens) (UniProt P08684); assay: qHTS for inhibitors of CYP3A4 against the NCATS DSHEA and TCM libraries (AID 1919971); further: potency means the concentration at half of the fitted maximal effect
# Outline: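 Each CYP isoform and its pro-luciferin substrate, at isoform-specific final concentrations, were preincubated 15 min at RT with substances. NADPH regeneration solution (1x) started a 30-45 min reaction, and P450-Glo luminescence was read.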
# [25] = molecular target: Glutathione peroxidase 1 (Homo sapiens) (UniProt P07203); assay: Primary qHTS Assay for Inhibitors of Recombinant Selenoprotein Glutathione Peroxidase 1 (GPX1) (AID 1845191); further: nearly all actives have a fitted effect of over 65% in size
# Outline: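 GPX1 10 nM, GR 100 nM, GSH 1 mM, NADPH 0.5 mM, CHP 0.5 mM (final). 30-min cpd preincubation, RT. Ex340/Em450 read t=0, t=15 min.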
# [26] = system: Tov-21-G; assay: Primary qHTS to identify gynecologic anti-cancer compounds using libraries of approved drugs and bioactive compounds (AID 1345084); conditions: Gynecologic cancer cell panel viability, ATPlite luminescence, 48 h; series mostly up to 57.5 µM; further: nearly all actives have a fitted effect of over 55% in size; further: potency means the concentration at half of the fitted maximal effect
# Outline: as §1
# Tags describe the fitted curve by direction and shape.
# Chain of UniProt Q99828 (Q99828 whole entry, looked up): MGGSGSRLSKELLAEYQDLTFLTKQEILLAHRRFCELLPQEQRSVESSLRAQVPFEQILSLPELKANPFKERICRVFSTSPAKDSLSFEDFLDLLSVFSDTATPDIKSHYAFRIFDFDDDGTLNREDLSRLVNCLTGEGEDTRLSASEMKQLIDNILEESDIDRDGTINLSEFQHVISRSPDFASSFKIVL
# Chain of UniProt Q14994 (Q14994 whole entry, looked up): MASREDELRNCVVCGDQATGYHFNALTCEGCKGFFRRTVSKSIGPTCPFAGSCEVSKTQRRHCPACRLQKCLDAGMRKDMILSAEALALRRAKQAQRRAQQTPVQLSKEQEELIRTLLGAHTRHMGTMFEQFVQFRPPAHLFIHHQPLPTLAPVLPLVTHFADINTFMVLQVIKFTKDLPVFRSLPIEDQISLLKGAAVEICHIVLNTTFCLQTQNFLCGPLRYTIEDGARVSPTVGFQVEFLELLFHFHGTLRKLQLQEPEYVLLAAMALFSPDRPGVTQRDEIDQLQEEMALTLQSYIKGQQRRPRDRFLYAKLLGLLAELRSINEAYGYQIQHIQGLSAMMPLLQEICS
# Chain of UniProt P07203 (P07203 whole entry, looked up): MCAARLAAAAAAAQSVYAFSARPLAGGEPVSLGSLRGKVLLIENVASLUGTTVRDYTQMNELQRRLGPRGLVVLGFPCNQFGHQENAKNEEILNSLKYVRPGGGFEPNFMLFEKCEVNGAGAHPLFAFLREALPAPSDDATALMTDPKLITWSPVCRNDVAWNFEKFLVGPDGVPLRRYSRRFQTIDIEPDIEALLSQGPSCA
# Chain of UniProt P08684 (P08684 whole entry, looked up, canonical isoform): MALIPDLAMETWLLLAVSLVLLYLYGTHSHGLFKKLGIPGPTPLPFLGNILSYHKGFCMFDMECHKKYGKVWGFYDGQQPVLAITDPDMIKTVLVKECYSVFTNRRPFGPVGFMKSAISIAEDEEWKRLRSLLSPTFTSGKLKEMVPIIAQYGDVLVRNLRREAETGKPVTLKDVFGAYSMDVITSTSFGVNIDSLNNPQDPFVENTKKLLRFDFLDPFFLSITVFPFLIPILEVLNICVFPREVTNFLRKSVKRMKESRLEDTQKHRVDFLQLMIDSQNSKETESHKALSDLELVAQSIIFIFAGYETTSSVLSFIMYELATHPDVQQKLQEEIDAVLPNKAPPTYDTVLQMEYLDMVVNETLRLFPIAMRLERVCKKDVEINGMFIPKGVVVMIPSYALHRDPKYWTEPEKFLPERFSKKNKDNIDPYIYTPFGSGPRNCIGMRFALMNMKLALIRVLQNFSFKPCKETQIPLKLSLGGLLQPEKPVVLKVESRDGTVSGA
# Chain of UniProt P36969 (P36969 whole entry, looked up): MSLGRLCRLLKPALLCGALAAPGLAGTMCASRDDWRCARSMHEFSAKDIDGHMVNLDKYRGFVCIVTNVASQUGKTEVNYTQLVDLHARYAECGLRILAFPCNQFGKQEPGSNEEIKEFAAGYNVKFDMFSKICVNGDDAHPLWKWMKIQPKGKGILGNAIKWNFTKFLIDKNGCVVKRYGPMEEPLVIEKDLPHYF
structure (smiles),measurement,setting,value
COc1cc(/C=C/C(=O)OC[C@H]2O[C@@](CO)(O[C@H]3O[C@H](CO)[C@@H](O)[C@H](O)[C@H]3O)[C@@H](OC(=O)/C=C/c3ccc(O)c(OC)c3)[C@@H]2O)ccc1O,Potency,[1],"inconclusive [inhibitor, partial curve, poor fit]"
same,Potency,[2],inactive
same,Potency,[3],inactive
same,Potency,[4],active: 3.54 µM
same,Potency,[5],inactive
same,Potency,[6],inactive
same,Potency,[7],inactive
COc1cc(O)cc(C)c1C(=O)O[C@H]1[C@@H](OC(C)=O)[C@H](n2ccc(=O)[nH]c2=O)O[C@@H]1CO,Potency,[8],inactive
same,Potency,[5],"inconclusive [cytotoxic, single point]"
same,Potency,[6],inactive
same,Potency,[7],inactive
O=C(O)c1ccccn1,Potency,[9],inactive
same,Potency,[10],inactive
same,Potency,[11],"inconclusive [inhibitor, partial curve, poor fit]"
same,Potency,[12],inactive
same,Potency,[5],inactive
same,Potency,[6],"inconclusive [rising, partial curve, poor fit]"
same,Potency,[13],inactive
same,Potency,[14],inactive
same,Potency,[15],"inconclusive [inhibitor, single point]"
same,Potency,[16],"inconclusive [inhibitor, single point]"
same,Potency,[17],"inconclusive [inhibitor, single point]"
same,Potency,[18],inactive
same,Potency,[19],inactive
same,Potency,[20],inactive
same,Potency,[21],inactive
C[C@H]1[C@H](C)CC[C@]2(C(=O)O)CC[C@]3(C)C(=CC[C@@H]4[C@@]5(C)C[C@@H](O)[C@H](O)[C@@](C)(CO)[C@@H]5CC[C@]43C)[C@H]12,Potency,[1],"inconclusive [inhibitor, full curve, poor fit]"
same,Potency,[22],"inconclusive [inhibitor, full curve]"
same,Potency,[23],"inconclusive [inhibitor, partial curve, poor fit]"
same,Potency,[24],"inconclusive [inhibitor, partial curve]"
same,Potency,[5],inactive
CC(=O)N1c2ccccc2C2(O)CC3C(=O)NC(CC(C)C)C(=O)N3C12 (stereo not given),Potency,[1],inactive
same,Potency,[25],inactive
same,Potency,[5],"inconclusive [rising, single point]"
same,Potency,[26],inactive

# Reference: PubChem BioAssay (NCATS)
